# Measurements reported in the supplement of paper PMC3334620.
# Over roughly 33,000 sequences, “E-score (-0.5 to 0.5)” has its median near -0.035; the highest 2% begin near 0.34. This is one part of the list.
# Biological target: T1, Mot3 (UniProt P54785)
# T1 sequence: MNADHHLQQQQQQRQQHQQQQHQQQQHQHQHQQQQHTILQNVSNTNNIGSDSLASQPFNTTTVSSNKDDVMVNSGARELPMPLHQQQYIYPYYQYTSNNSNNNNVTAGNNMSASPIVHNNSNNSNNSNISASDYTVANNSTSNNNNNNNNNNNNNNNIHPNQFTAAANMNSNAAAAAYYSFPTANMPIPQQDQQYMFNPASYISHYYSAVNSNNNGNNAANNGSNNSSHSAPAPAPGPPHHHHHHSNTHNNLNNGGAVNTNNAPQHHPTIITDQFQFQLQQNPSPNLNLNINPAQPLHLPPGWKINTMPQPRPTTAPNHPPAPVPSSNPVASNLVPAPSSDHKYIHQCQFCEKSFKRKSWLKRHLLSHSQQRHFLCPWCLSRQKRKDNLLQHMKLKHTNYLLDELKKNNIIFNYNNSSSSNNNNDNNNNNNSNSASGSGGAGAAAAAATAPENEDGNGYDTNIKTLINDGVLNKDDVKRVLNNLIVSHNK
# Experiment: PBM E-score (8-mer binding enrichment) (E-score (-0.5 to 0.5)); higher = stronger / more preferred TF binding; most listed sequences are background and not binding sites
# Settings: protein concentration: 200 nM; construct: GST-full length
# Experimental: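 Universal 'all 10-mer' protein binding microarrays (Agilent AMADID 015681) probed with GST-tagged S. cerevisiae TFs (full-length or DBD) made by in vitro transcription/translation (PURExpress), about 100-200 nM. Bound TF was detected with fluorescent anti-GST. Each ungapped 8-mer (which stands for itself and its reverse complement) is scored by the PBM enrichment score (E-score), a modified Wilcoxon-Mann-Whitney statistic from -0.5 to +0.5, computed with the Universal PBM Analysis Suite. Scale: above 0.35 generally sequence-specific binding.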
row,Sequence,PBM E-score
1,AAAATCTT,-0.0412
2,GGGCATTA,-0.195
3,CTTAGCTC,-0.0223
4,AATTACCT,0.276
5,CCTTCCAC,0.0694
6,GCTCACTA,-0.0157
7,CTTAGACC,-0.0264
8,ACCGGCAC,0.0245
9,ACAGTGAG,0.0411
10,GGGGGGCA,-0.276
11,GGCCGTTA,-0.266
12,ACCCCAGT,-0.0507
13,AGATGATG,-0.191
14,CAGGTAGA,-0.0121
15,CTTCCATA,-0.0345
16,CAGGAAGG,-0.0907
17,GTCGTTTA,0.175
18,CAGTCTAA,-0.131
19,TCGGTAGA,-0.153
20,GGCTAGCC,-0.42
21,AGTTAACG,0.164
22,ACGGGCTG,-0.186
23,TGACCCCA,-0.144
24,CGCGGTTC,0.111
25,TAAGCGTA,-0.0152

row,Sequence,PBM E-score
1,GAGGCACA,0.47
2,AGGAGGCG,-0.163
3,ATGGTAGC,0.0672
4,GACGAACC,-0.0482
5,ACTTGTAC,0.156
6,CCTCTTCC,-0.103
7,CCAGCGCA,-0.175
8,AAGGTACC,0.419
9,GTTACAAA,0.223
10,TACCCTCA,-0.17
11,GCCCAGTA,-0.0683
12,AGGGGCTC,-0.124
13,ATCCACAA,0.0047
14,CACGTCGC,-0.0751
15,GCAGGAGC,0.0355
16,GAGATATA,-0.0593
17,ATTCCTTC,0.0162
18,AAGGCGAC,0.00796
19,CGTTGTGC,0.111
20,CTATCGGC,-0.167
21,CACACTCG,0.0595
22,CAGCTGAC,0.033
23,ACGGCAGT,-0.0853
24,GATCAGAC,-0.0844
25,AAGCCTCG,-0.129

row,Sequence,PBM E-score
1,CCTTGTAA,0.392
2,CCGCCCGC,-0.305
3,ATTATTGC,0.201
4,CCCGGCTC,-0.33
5,CGAGCGTC,-0.261
6,CCTTCGAA,0.0727
7,AGACTCTA,-0.162
8,CAATCAAA,0.0454
9,AACAATCC,0.142
10,CCCCTGTA,0.115
11,CGGCTGTC,-0.232
12,ACACTAAT,0.0509
13,TAGATTAA,0.0794
14,GGAAACAA,0.0425
15,AATACGGC,0.0771
16,AGTTGTGA,0.00694
17,ACGAATAC,0.18
18,CCAAACAA,-0.0179
19,ACACCATG,0.161
20,CCAGAAAC,-0.155
21,CTTATACC,-0.042
22,AGTCTAAA,-0.158
23,ACGCCAGT,-0.0132
24,ACCAACTC,-0.12
25,GTTTCGTA,0.0604

row,Sequence,PBM E-score
1,CTTCCGAC,-0.0565
2,GGGGCCCC,-0.33
3,ATTATAAT,0.0317
4,CTTGTGGC,-0.206
5,GGGTCTTA,-0.16
6,CACGGCAC,0.132
7,ACAATCAG,0.152
8,CACTTAAC,0.0945
9,ACCTCCGT,-0.0274
10,GTACGTTA,0.234
11,AACCCAAG,0.018
12,CAGTAGGC,0.219
13,AGTACGAT,-0.0791
14,CGGGGCGA,-0.151
15,CTCGAGAC,-0.0218
16,ATCAACTC,0.00418
17,TGTACGAA,0.17
18,CCGCGCGA,-0.165
19,GTTATATA,0.187
20,AAGTTGCA,0.00119
21,GAAGCAAA,-0.00288
22,AAGCGGCA,-0.0957
23,ACATGTGG,0.215
24,AAGTTGGA,0.0438
25,GCCTTAAA,0.349

row,Sequence,PBM E-score
1,CTTTAGCA,-0.00329
2,CGGAAGAC,0.0461
3,CCATGAGG,-0.211
4,GCAGAAAA,0.1
5,ACCCATGG,-0.2
6,CGATATTA,0.0296
7,CACTATTA,0.0283
8,CATCAGAC,-0.00787
9,ACGCCCAT,-0.153
10,CGTTAGGA,0.0432
11,CGGTTTAA,0.0367
12,TCATACGA,0.0661
13,CTTTCATC,-0.0692
14,GAGCTGAC,-0.152
15,CGCGGCCC,-0.198
16,GATTCTGC,-0.0101
17,GTGGTAAA,0.176
18,CAGATTCA,0.18
19,ACCCTTCC,-0.112
20,ATCCCGAT,-0.0565
21,GCTAATTA,0.148
22,ATTGAAAA,0.104
23,ACTTCGGC,-0.0943
24,GCGATCGA,-0.0406
25,ATCAAACG,0.0779

row,Sequence,PBM E-score
1,AGCTCCCA,-0.179
2,GTAGAGAA,-0.0212
3,ATTACTGC,0.0976
4,CACGGTCC,-0.0249
5,CCACTTCA,-0.172
6,AACATCTA,0.122
7,AAAAACTC,0.0308
8,CCAGAATA,0.0922
9,CCAACTAA,0.0699
10,ACCGTGCA,-0.0784
11,AAATCATC,-0.153
12,GCCATAGC,-0.178
13,CCTGTAAC,0.295
14,AAAAATGT,0.213
15,AGACTCTG,-0.0696
16,CACTATGA,0.0446
17,ACTATAAT,0.111
18,CCCAACAC,0.00126
19,CCACAAAA,0.0078
20,ACGTTGCG,0.0802
21,AGGAAATC,0.373
22,AACGCCGA,0.0249
23,CTGCGACC,-0.239
24,AGCAGTGG,-0.344
25,AGGTCTGA,-0.0823

row,Sequence,PBM E-score
1,TTATCCAA,0.0557
2,GACGGAAC,-0.263
3,GACAGCGC,-0.0391
4,AGAAAAAT,0.133
5,ACTCGAGG,-0.101
6,CCTTGCCG,-0.146
7,AGCGGAAC,-0.185
8,CTAGCTTA,-0.111
9,ATAGCGGA,-0.229
10,GGACAATA,-0.0384
11,CCAAGCAA,-0.0858
12,CACGTGCC,0.318
13,CTGTTTCC,0.103
14,AGTTAGAG,-0.21
15,AAGTAGCT,-0.0175
16,GTTGTATA,0.288
17,AAGAGGCA,0.391
18,AATGATCC,-0.0661
19,AGAACAAG,0.212
20,ACGTGTGC,0.119
21,AAAGTCGG,-0.0308
22,AGAATTGA,0.0762
23,GTTAGTGA,0.16
24,CCATGGCA,-0.113
25,TAGGCGCA,0.0665

row,Sequence,PBM E-score
1,GAAACAGC,-0.0498
2,CCGCTAAC,-0.0566
3,CACAATCG,0.018
4,GCGGAGTA,-0.148
5,ACCCGGGA,-0.0304
6,CTGTCATA,0.102
7,ACCGGTCG,-0.123
8,CGAGAAGC,-0.128
9,CCCATCAC,-0.0288
10,CCCTGATC,-0.215
11,ATCACAGC,0.0381
12,AATGGGCC,-0.258
13,ACTCCGCA,-0.183
14,ACAGAACA,0.145
15,CCTGCTAC,0.146
16,CAAATGTA,0.272
17,CCGGGTGC,-0.261
18,GCTAAATA,0.0782
19,CTATCTTA,0.0479
20,CTCAACAG,0.127
21,GTCAGAAC,-0.0741
22,CAATATCA,0.0343
23,CAGCGGAA,-0.213
24,AGGTTACT,0.0805
25,CACCCCGG,-0.244

row,Sequence,PBM E-score
1,GAAGACGC,-0.0204
2,AATCACAC,0.199
3,GGAGTTAC,0.0562
4,GACGATTA,0.0564
5,CCGACCCG,-0.117
6,GGTCCTCA,-0.167
7,AATCATGT,0.329
8,AGTCACCA,0.00724
9,ATGCCTTA,0.342
10,ATATTTGA,-0.0669
11,AGGTGACA,-0.147
12,ACATAACA,0.332
13,AATGGCAG,-0.0791
14,ATGGTGCG,-0.151
15,ACGGCCCT,-0.224
16,CTAAGCTC,-0.0294
17,CACTTAAG,0.19
18,GAGTTTGC,0.0403
19,GCACGCCC,-0.115
